Data published in ChEMBL document CHEMBL4888484, “Replenishing the malaria drug discovery pipeline: Screening and hit evaluation of the MMV Hit Generation Library 1 (HGL1) against asexual blood stage Plasmodium falciparum ,using a nano luciferase reporter read-out” (2022).
The whole screen tested about 4,800 compounds, of which about 410 (8.5%) showed an effect of 50% or more. Some of the results follow.

system: Plasmodium falciparum; assay: Confirmatory screen in NF54 pLDH assay, in single point, at 2uM, 72h; format: functional, Erythrocyte; conditions: timepoint 72 hour

Row | Compound | % Inhibition [%]
1 | Brc1cncnc1N1CCC[C@H](c2nnn[nH]2)C1 | -7
2 | C=CCC1(Nc2ccccc2)c2ccccc2-c2ccccc21 | -7
3 | CC1(CO)CCCC1NCc1cnc(N2CCOCC2)nc1 (stereo not given) | 12
4 | CCCOc1cc(=O)c(C(=O)N2CCCC2)nn1-c1ccc(C)cc1 | 0
5 | Cn1ccc(C2=Nc3ccccc3NC(=O)C2)n1 | -4
6 | c1ccc(-c2cn[nH]c2N2CCNCC2)cc1 | -16
7 | Cc1ccc(S(=O)(=O)/N=[S@@](/c2ccccc2)c2ccccc2C)cc1 | -13
8 | COc1ccc(Nc2nnc(/C=C/c3ccccc3)c(=O)n2N)cc1 | 16
9 | CCC(=O)N1CCc2sc(S(=O)(=O)N3CCN(c4cc(C)ccc4C)CC3)cc2C1 | 38
10 | CCNC(=O)C1Cc2ccc(OC)cc2N2CCN(c3ccc(OC)cc3)CC12 (stereo not given) | 4
11 | COc1cccc(-c2cc(C(=O)Nc3ccc(F)c(Cl)c3)c3c(C)nn(C)c3n2)c1 | 4
12 | Cc1ccc(CNC(=O)[C@@H](C)C2CCOCC2)o1 | 2
13 | O=C(Nc1cnccn1)c1cccnc1OCC(F)F | 6
14 | CC(C)(C)OC(=O)N(c1ccc(F)cc1)S(C)(=O)=O | 10
15 | N#CC1(C(=O)NC(C2CC2)C2CC2)CCCC1 | -18
16 | Cc1ccnc(NC(=O)c2cc(C#N)oc2C)n1 | 1
17 | O=C(Nc1ccc(Cn2ccnc2)cc1)c1cc2ccccc2cc1OC(F)F | -12
18 | O=c1[nH]c2ccccc2nc1-c1cc(Br)ccc1NS(=O)(=O)c1cccc2nsnc12 | 3
19 | COCc1cc(=O)n(CC(=O)NCc2ccccc2Cl)c(N2CCCC2)n1 | -10
20 | CC(C)NC(=O)Cn1ccnc1CCN1C(=O)c2ccccc2C1=O | 10
21 | COc1ccc(S(=O)(=O)N2CCN(C(=O)N(C)C)[C@@H]2c2ccccc2)cc1 | 6
22 | Nc1ccc2c(NC3CCC(=O)NC3C3CC3)ncnc2n1 (stereo not given) | -16
23 | Cc1nn(C)c(C(=O)NCCCN2CCOCC2)c1Br | -8
24 | CCCCN(CC)C(=O)[C@@H]1CCC(=O)N(CC(C)C)[C@H]1c1cccnc1 | -20
25 | C[C@H](NC(=O)N(Cc1ccccc1F)C1CCC1)c1cnn(C)c1 | 8
26 | Cc1cccc(NC(=O)Nc2cc(F)c3[nH]c(=O)ccc3c2)c1 | -7
27 | Cc1nc(N2CCC(C)CC2)ncc1-c1cc(=O)[nH]c(NCc2ccccc2)n1 | -10

Row | Compound | % Inhibition [%]
28 | Cc1cccc(C(=O)N[C@H]2CCN(c3ccccc3)C2=O)c1 | 11
29 | CC[C@H](C)NS(=O)(=O)c1cccc(N)c1 | 2
30 | Cc1cc(-c2nc(C3(c4ccncc4)CCC3)no2)ccn1 | 4
31 | Cc1nn(C)c(C)c1-c1cc(C(=O)Nc2sc3c(c2C#N)CCCC3)c2ccccc2n1 | -4
32 | Cc1ccc2c(c1)N(S(C)(=O)=O)CC[C@@H](C(=O)NC1CC1)O2 | -26
33 | Cc1ccc(NC(=O)Nc2cccc(-c3ccc(N4CCN(C)CC4)nn3)c2)cc1C | 13
34 | O=C1NC2(CCC2)C(=O)N1CCCCOc1ccccc1 | -7
35 | Cc1oc2ncn(CCN3CCCC3)c(=O)c2c1C(=O)Nc1ccc(C#N)cc1 | -1
36 | CCn1c(=O)c(N2CCC(C(=O)NCCCc3ccccc3)CC2)nc2cccnc21 | -22
37 | CO/N=C(\Nc1cc(C)ccc1C)c1nonc1N | 16
38 | CCCn1nnnc1Cn1ncc2ccccc2c1=O | -5
39 | Cc1cc(=O)n2ncc(C(=O)Nc3cc(F)ccc3C)c2[nH]1 | -24
40 | O=C(c1nc(C2CC2)ncc1Br)N1CCC[C@H]1C1CCOCC1 | 8
41 | Nc1nc(N2CCC3(CC2)OCCO3)ncc1C(=O)Nc1ccccc1 | -9
42 | Cc1cccc(S(=O)(=O)c2cnc(N3CCC(Cc4ccccc4)CC3)nc2N)c1 | -18
43 | CCN1CCN(c2nc(O)c3c(n2)NC(=O)C[C@H]3c2cccc(F)c2)CC1 | -7
44 | C[C@H](NC(=O)c1ccco1)c1cc2c(cc1Br)OCCCO2 | -9
45 | CC[n+]1c(/C=C/N(C)c2ccccc2)oc2ccc(-c3ccccc3)cc21 | 91
46 | CC(C)(C)OC(=O)Nc1cccc(N)n1 | 8
47 | C=CCNC(=S)NS(=O)(=O)c1ccc(Cl)cc1 | 9
48 | CCn1nc(C)c(C(=O)Nc2sc3c(c2C(N)=O)CCC3)c1C | -15
49 | N#Cc1c(-c2ccccc2)cc(-c2ccccc2)n(C(=O)c2ccc(F)cc2)c1=O | 9
50 | Cc1[nH]ncc1CCCNCc1cscn1 | 9
51 | Cc1ccccc1OCc1nc2c3c(ncn2n1)Oc1cc(O)ccc1[C@@H]3c1ccccc1 | 14
52 | CC(=O)Nc1c(-c2ccc(C)cc2)c(C)nn1-c1ccc(C(=O)Nc2cc(C)ccn2)cc1 | 38
53 | C[C@@H](C(=O)Nc1ccc(Br)cn1)N1C(=O)CCC1=O | -25
54 | CCN(CC)CC(O)COc1c(Br)cc(C(C)(C)c2cc(Br)c(OCC(O)CN(CC)CC)c(Br)c2)cc1Br (stereo not given) | 99

Row | Compound | % Inhibition [%]
55 | Cc1ccc(C(N)C(C)S(C)(=O)=O)cc1 (stereo not given) | -18
56 | CCOC(=O)c1ncn(C2CCCCC2)c1N | 10
57 | COc1ccc(C)c2sc(N(CCCn3ccnc3)C(=O)Cc3ccc(F)cc3)nc12 | 85
58 | c1cc(-c2nnc(-c3ccncc3)s2)ccn1 | 2
59 | Cc1ccc2c(c1)C1NC(=O)NC(C)(O2)C1C(=O)Nc1ccc(Cl)cc1 (stereo not given) | 7
60 | CCCC[C@H](CC)C(=O)Nc1c(C)cccc1CC | -8
61 | CC(C)(C)c1cccc(Oc2nn[nH]n2)c1 | 11
62 | O=C1NC(c2ccccc2)=NC12CCN(Cc1c(F)cccc1F)CC2 | 49
63 | CCC1=NN2C(=NC(C(=O)O)=C[C@H]2c2ccc(O)cc2)N1 | -3
64 | NC(=O)[C@@H]1CCCN1C(=O)c1ccnc(OC2CCCCC2)c1 | -10
65 | O=C(C[C@@H]1C=CCC1)Nc1nc(-c2ccc(Cl)cc2)cs1 | 13
66 | CC(C)c1ccc(-c2nn3c(C4CCN(S(C)(=O)=O)CC4)nnc3s2)cc1 | -10
67 | CC(C)c1cc(=O)[nH]c(-n2nc(C3CC3)cc2NC(=O)COc2ccc3ccccc3c2)n1 | 65
68 | CCc1nnc(-n2nc(C)cc2C)n1N1C(n2nnc3ccccc32)CCCC1n1nnc2ccccc21 (stereo not given) | -5
69 | CCOc1cc(-c2cc(-c3ccccc3O)nc3ccc4ccccc4c23)cc(Br)c1O | 92
70 | CCn1cnnc1C1CCN([C@@H](C)C(=O)Nc2ccccc2C)CC1 | 11
71 | CN(CC#N)C(=O)c1ccc(Br)cc1Br | -7
72 | CC1CN(C(=O)COc2ccc3oc4ccccc4c3c2)CC(C)O1 (stereo not given) | 2
73 | CN(Cc1ncnn1C)C(=O)NCC1(c2cccs2)CCCCC1 | -23
74 | O=S(=O)(c1ccc2ccccc2c1F)N1CC(CO)C1 | -13
75 | CN1Cc2cc(OCC3(O)CCOCC3)ccc2C1=O | -8
76 | CC[C@](C)(NCCc1c[nH]c2ccccc12)c1nnnn1CCCN1CCOCC1 | 7
77 | Cc1ccc(NC(=O)c2ccn(COc3ccccc3Cl)n2)nc1 | -14
78 | COCCN(CC1CC=CCC1)C(=O)C1CCC(=O)N1 (stereo not given) | -4
79 | CC(C)(C)c1ccc(NC(=O)N[C@@]2(C)CCS(=O)(=O)C2)nn1 | -7
80 | Cc1nn(-c2ccc(NC(=O)[C@@H]3CCC(=O)N3)cn2)c(C)c1Cl | -10
81 | COc1ccc(C(=O)N2C[C@@H]3C[C@H]2C[C@@H]3NC(=O)c2ccccc2)cc1F | 9

Row | Compound | % Inhibition [%]
82 | C#CC[C@H](OC(=O)c1cccn1C)C1CC1 | -6
83 | C[C@H](C(=O)Nc1nc2c(ccc3ccccc32)s1)C1CCOCC1 | 8
84 | CCCC(=O)Nc1cccc(C(=O)O)c1C | -5
85 | CN(C)c1cccc(CNc2ccc(C(F)(F)F)nn2)n1 | 1
86 | CC(C)(C)[C@@H](O)CNC(=O)c1c(O)cccc1F | -17
87 | CC1(C(=O)NCc2ccc(F)cc2F)CCN(C(=O)CC2CCCC2)CC1 | 4
88 | c1ccc(Cn2ncc3cc(-c4nc(C5CC5)no4)cnc32)cc1 | -5
89 | COc1ccc(CCNC(=O)CCCC(=O)Nc2cccnc2)cc1OC | 12
90 | CC1(C)NC(=O)CC[C@@H]1NC1CC(c2cccc(F)c2)C1 (stereo not given in full) | 14
91 | Cc1nn(C)cc1-c1nn(-c2nc(C3CC3)cc(C(F)(F)F)n2)c(-c2cn(C)nc2C)c1C | -9
92 | CCCC[C@H](CC)C(=O)Nc1ccccc1C | 3
93 | CC(C)N(C)CC1CCN(C(=O)c2cc(-c3ccccc3)c(N3CCOCC3)s2)CC1 | 1
94 | Cc1ccccc1C(=O)NCc1nn(C2CCCC2)c2c1COCC2 | 6
95 | CC[C@H]1Cn2c(C(=O)NC3CCCC3)cc3c(Cl)ccc(c32)O1 | -11
96 | O=C(CCCc1nccs1)NCc1cc(Cl)cc2c1OCC2 | -6
97 | O=C(Cc1ncc(C(F)(F)F)cc1Cl)c1ccc(Cl)c(Cl)c1 | 13
98 | CCN(CCc1ccncc1)S(=O)(=O)c1ccc(N2C(=O)CCS2(=O)=O)cc1C | 7
99 | C=CCN1CCN(c2nccn3nc(-c4ccc(Cl)cc4)cc23)CC1 | 3
100 | CCN1c2cc(C(=O)Nc3ccc(OC)cc3OC)ccc2C(=O)N2CCCC[C@H]21 | 15
101 | N#Cc1cc(S(=O)(=O)NCCN(C2CC2)S(=O)(=O)c2ccc(Cl)c(C#N)c2)ccc1Cl | 86
102 | COc1cccc(-c2nc3n(c2C(=O)NCC(C)C)CCS3(=O)=O)c1 | 7
103 | CC(C)CCNC(=O)c1cnn2c3c(cnc12)CCCC3 | -8
104 | CC1(C)C[C@@H](NC(=O)COc2ccc(CO)cc2)CCO1 | 10
105 | Cc1cc(NC(=O)NC(C)C)c2[nH]c(C(=O)N3CCOCC3)c(-c3ccccc3)c2c1 | 9
